# PubChem BioAssay AID652104 (National Center for Advancing Translational Sciences (NCATS), 2013)
# Several values for one entry are separate records, joined by “and”; a condition that tells them apart may be missing. Identical values can stand only once. Among all 410,000 compounds or so, about 7,200 (1.8%) were called active. The inconclusive results got no clear call from the source; some entries with a clear call stand among them for comparison. Calls come from the whole dose curve; as a rule, active = well fitted activation curve with a large enough effect; inconclusive = small, poorly fitted or top-dose-only effect, or another doubt; inactive = no such curve, though single readings can be large or run the other way. Potencies of inconclusive entries are left out as doubtful fits.
# Test: qHTS of TDP-43 Inhibitors; note: nearly all actives have a fitted effect of over 50% in size; for growth rescue (activation): % of control where 0% means no effect
# Conditions: TDP-43 expressing yeast growth rescue, BacTiter-Glo, 24 h; growth rescue (activation): at 46.1 µM (top of the series) unless noted
# Procedure, shortened: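 Yeast expressing TDP-43 (pregrown in raffinose, seeded at OD600=0.02 in galactose medium) exposed to compounds 24 hr at 30 deg C. Growth read by BacTiter-Glo luminescence; rescue of toxicity appears as increased signal.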
# Potency is the fitted concentration of half-maximal effect; tags give direction and shape of the fitted curve.
SMILES,Potency,growth rescue (activation)
CN(C)/C=N/c1ncc(C(=O)c2ccc(Cl)cc2)s1,"inconclusive [activator, single point]",
O=C(Cn1cc(COc2ccc(C(=O)c3ccccc3)cc2)nn1)c1ccc(O)cc1,"inconclusive [activator, single point]",
O=C(COC(=O)c1cccc(S(=O)(=O)N2CCCC2)c1)Nc1ccccc1Cl,"inconclusive [activator, single point]",
CCCCCCCCOC(=O)CCc1c(C)[nH]c(=S)[nH]c1=O,"inconclusive [activator, partial curve, poor fit]",
COc1ccc(N2CCN(C(=O)NC34CC5CC(CC(C5)C3)C4)CC2)cc1,"inconclusive [activator, partial curve]",
Cc1ccnc(SCCn2c(N(C)Cc3ccccc3)nc3c2c(=O)n(C)c(=O)n3C)n1,"inconclusive [activator, partial curve]",
Cc1ccc(-c2c(C(=O)NCCc3ccccc3)oc(=O)c3ccccc23)cc1,"inconclusive [activator, partial curve]",
Cc1cc(C(=O)Nc2ccc(Cl)cc2)c(C)n1-c1ccccc1,"inconclusive [activator, partial curve]",
COc1ccc(-c2cc3ccc(O)c(CN4CCCC4)c3oc2=O)cc1,,inactive: 21.3%
COc1ccc([C@H]2CC(=O)C=C(c3ccc(C)c(F)c3)C2)cc1,"inconclusive [activator, single point]",
CCc1ccc(NC(=O)C2CCCN2S(=O)(=O)c2ccc3c(c2)CCCC(=O)N3)cc1 (stereo not drawn),,inactive: 8.85%
CC(C)c1ccc(NC(=O)C(=O)c2cn(CC(=O)N3CCCCC3)c3ccccc23)cc1,"inconclusive [activator, partial curve, poor fit]",
COc1ccc(CNC(=O)C[C@@H]2CC[C@@H](NS(=O)(=O)c3cccc(OC)c3)[C@@H](CO)O2)cc1,"inconclusive [activator, full curve]",
CCCCc1ccc(NC(=S)N2CCN(c3ncccn3)CC2)cc1,"inconclusive [activator, partial curve]",
CCC(=O)OC1(C)C(=O)C=C2C=C(c3ccsc3)OC=C2C1=O (stereo not drawn),"inconclusive [activator, partial curve, poor fit]",
CC(C)(C)c1cc(NS(=O)(=O)c2cccs2)no1,"inconclusive [activator, partial curve]",
COc1ccc(O)c(C(=O)c2cnn(S(=O)(=O)c3ccc(C)cc3)c2)c1,"inconclusive [activator, partial curve, poor fit]",
NS(=O)(=O)c1cccc(NC(=O)C2CC(=O)N(Cc3ccco3)C2)c1 (stereo not drawn),,inactive: 5.17%
O=C(CCCOC(=O)c1ccc(O)cc1O)c1ccccc1,"inconclusive [activator, full curve]",
CC1=Nc2cc(C(=O)N3CCC(C)CC3)ccc2Sc2ccc(Cl)cc21,"inconclusive [activator, single point]",
Cc1cc2c(cc1NS(=O)(=O)c1cccc(C#N)c1)n(C)c(=O)c(=O)n2C,,inactive: -11%
CN(C(=O)c1ccc2c(Cl)c3c(nc2c1)CCC3)c1ccccc1F,"inconclusive [activator, single point]",
Cc1cc(NC(=O)CCCC(=O)OCC(F)(F)C(F)F)cc(C)c1C(=O)O,,inactive: 11.5%

SMILES,Potency,growth rescue (activation)
Cc1ccc(CNC(=O)c2nnc(Cc3ccc(Cl)cc3)o2)cc1,"inconclusive [activator, full curve, poor fit]",
COCCn1c(C)cc(C(=O)COC(=O)c2ccc([N+](=O)[O-])o2)c1C,"inconclusive [activator, single point]",
CC(=O)NC(c1cccc(F)c1)c1nc(/C=C/c2ccccc2)cs1 (stereo not drawn),"inconclusive [activator, single point]",
O=C(Oc1ccc(C(=S)N2CCOCC2)cc1)c1cccc([N+](=O)[O-])c1,,inactive: 7.75%
O=C(COC(=O)c1ccc(Cl)nc1)NCCc1ccc(Cl)cc1,"inconclusive [activator, single point]",
COC(=O)C1=NN(C(=O)c2ccc(Br)cc2)C(O)(C(C)(C)C)C1 (stereo not drawn),"inconclusive [activator, single point]",
O=C(CO/N=C/c1cccc([N+](=O)[O-])c1)Nc1ccc2ccccc2c1,"inconclusive [activator, partial curve]",
CCNC(=S)NN=C1CCC(C(C)(C)C)CC1 (stereo not drawn),"inconclusive [activator, single point]",
COc1ccc(O)c(C(=O)c2cc(C(=O)NCCc3ccccc3)c(=O)n(CCc3ccccc3)c2)c1,"inconclusive [activator, partial curve, poor fit]",
C=CCc1c(Cl)nc(C)nc1NCc1ccccc1,"inconclusive [activator, single point]",
Cc1ccc([C@H]2C[C@@H](O)[C@H](n3cc(-c4ccc(F)cc4)nn3)CN2C(=O)C2CCCCC2)cc1,"inconclusive [activator, partial curve]",
CCCCCn1c(CCNC(=O)c2cccc(C)c2)nc2ccccc21,,inactive: 27%
O=C(NCc1ccco1)N1c2ccccc2Sc2ccccc21,"inconclusive [activator, single point]",
O=C1CC(c2ccccc2)CN1S(=O)(=O)c1ccccc1 (stereo not drawn),"inconclusive [activator, partial curve]",
CC(CCc1ccccc1)NC(=O)C1CCN(S(=O)(=O)N2CCOCC2)CC1 (stereo not drawn),"inconclusive [activator, partial curve]",
COc1ccc(OC)c(C(=O)CSc2nnc(Cc3cccs3)n2C)c1,,inactive: -1.69%
CSc1nc2ccc(NC(=O)c3ccc(Cl)s3)cc2s1,"inconclusive [activator, full curve]",
COc1ccc(CNC(=O)CN2C(=O)CC(c3ccccc3)=Nc3ccccc32)cc1,"inconclusive [activator, partial curve]",
CC1CN(C(=O)N2CCC(C(=O)NCCCc3ccccc3)CC2)c2ccccc2O1 (stereo not drawn),,inactive: 15.9%
Cc1ccc(NC(=O)Cc2ccc(-c3ccccc3)cc2)nc1,active: 7.08 µM,
O=C(CSc1nc2ccccc2nc1N1CCOCC1)Nc1ccccc1F,"inconclusive [activator, partial curve]",
OCCNc1ncnc2c1ncn2[C@H]1CN(Cc2ccncc2)C[C@@H](CO)O1,"inconclusive [activator, full curve, poor fit]",
CCCCc1ccc(NC(=S)NN2CCOCC2)cc1,"inconclusive [activator, partial curve]",

SMILES,Potency,growth rescue (activation)
COc1cc(C(=O)N2CCN(C/C=C/c3ccccc3)CC2)cc(OC)c1OC,"inconclusive [activator, partial curve]",
Cc1ccccc1NC(=O)c1cc(=O)c2ccccc2o1,active: 12.6 µM,
CCCCNC(=S)N(C)/N=C/c1ccc(F)cc1,active: 11.2 µM,
COc1ccc(CSCC(=O)Nc2ccc(S(=O)(=O)N3CCCCCC3)cc2)cc1,active: 17.8 µM,
O=C(C1COc2ccccc2O1)N1CCN(c2ccccc2F)CC1 (stereo not drawn),"inconclusive [activator, single point]",
O=C1Cc2ccccc2C(=O)N1Cc1ccccc1,"inconclusive [activator, partial curve]",
COc1ccc(CNC(=O)CCc2nc(-c3ccc(OC)cc3)no2)cc1,"inconclusive [activator, partial curve]",
Cc1nc(N2CCN(C(=O)c3ccco3)CC2)c2c3c(sc2n1)CCCC3,"inconclusive [activator, single point]",
COc1ccccc1NC(=O)Nc1nn(C)c2cccc(N(C)C)c12,active: 20 µM,
Cc1ccc(S(=O)(=O)Oc2ccc3ccc(O)cc3c2)cc1,"inconclusive [activator, single point]",
Cc1ccccc1CSc1ccc(-c2cccs2)nn1,,inactive: -9.57%
CN1CCC(=C2c3ccccc3Sc3ccccc32)CC1,"inconclusive [activator, full curve, poor fit]",
COc1cccc(-c2cn3ncsc3n2)c1,,inactive: 11.8%
Cc1ccc(-n2c(C(C)C)nc3oc4ccccc4c(=O)c3c2=O)cc1,,inactive: 0.0871%
CCCSc1nc(NCc2ccco2)c2c3c(sc2n1)COC(C)(CC)C3 (stereo not drawn),"inconclusive [activator, partial curve]",
CN(Cc1ccccc1)c1ncnc2c1cnn2-c1ccccc1,"inconclusive [activator, single point]",
CCN(C(=O)C1CCCN(c2ncnc3c2nc2n3CCCCC2)C1)c1cccc(Cl)c1 (stereo not drawn),active: 12.6 µM and active: 25.1 µM,
Cc1cc2c(cc3c(SCc4ccccc4Cl)nnc(C)n32)o1,,inactive: 8.6%
CC(=O)Nc1cccc(C(=O)NCc2ccc3c(c2)CCN3C(=O)c2ccc(F)cc2)c1,"inconclusive [activator, partial curve]",
COCCN(C(=O)C1CC1)c1nnc(-c2ccc(C)cc2)s1,"inconclusive [activator, single point]",
C=CCn1c(-c2ccccc2)ccc(C#N)c1=O,"inconclusive [activator, partial curve]",
COc1ccc(OCC(=O)Nc2ccc(-c3nc4cc(C)c(C)cc4o3)cc2)cc1,"inconclusive [activator, partial curve]",
